No constants are given. Whether binding was seen depends on the method and setting. In cells and extracts the contact can be indirect. Some entries that bind do so weakly or less than the wild type. For part of these data: Where a sequence is shown, tags or fusion partners need not be part of it.
What was measured:
[1] = molecular target: Δc-JUN (truncated c-JUN mutant lacking amino acids 207–219), Myc-tagged (UniProt P05627); assay: co-IP; osteocytes transfected with NRF2-HA and c-JUN-Myc plasmids (or their truncations); NP-40 lysis buffer, primary antibody or normal IgG at 4 °C for 16 h, Protein A/G PLUS-Agarose, western blot
[2] = molecular target: c-JUN-Myc (c-JUN, Myc-tagged) (UniProt P05627); assay: as above
[3] = molecular target: c-JUN-Myc (c-JUN, Myc-tagged) (UniProt P05627); assay: co-IP; transfected osteocytes in the absence of HGHF treatment (Fig. S9); NP-40 lysis buffer, Protein A/G PLUS-Agarose, western blot
[4] = molecular target: endogenous c-JUN (mouse (endogenous in IDG-SW3)) (UniProt P05627); assay: co-IP; endogenous proteins in osteocytes in the absence of HGHF treatment (Fig. S9); NP-40 lysis buffer, Protein A/G PLUS-Agarose, western blot
[5] = molecular target: endogenous c-JUN (mouse (endogenous in IDG-SW3)) (UniProt P05627); assay: co-IP; endogenous proteins in osteocytes under HGHF treatment; NP-40 lysis buffer, primary antibody or normal IgG at 4 °C for 16 h, Protein A/G PLUS-Agarose, western blot

Protein sequences, listed by entry. Tags and fused reporters are not part of them. Lines headed by an entry give the natural chain unless they say otherwise; changes in a name come on top. Chains listed by the source or under a name are the forms on record and can include a tag or linker.
UniProt P05627: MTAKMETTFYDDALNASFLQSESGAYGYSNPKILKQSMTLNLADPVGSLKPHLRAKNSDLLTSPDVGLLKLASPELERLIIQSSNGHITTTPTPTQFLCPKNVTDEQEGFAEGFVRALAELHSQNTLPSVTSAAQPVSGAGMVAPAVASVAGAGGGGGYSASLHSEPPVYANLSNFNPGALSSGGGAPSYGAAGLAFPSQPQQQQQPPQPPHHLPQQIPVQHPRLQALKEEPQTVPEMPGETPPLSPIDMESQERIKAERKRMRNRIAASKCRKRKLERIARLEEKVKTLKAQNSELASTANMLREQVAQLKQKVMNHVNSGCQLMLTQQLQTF
Δc-JUN (truncated c-JUN mutant lacking amino acids 207–219), Myc-tagged (P05627, form named): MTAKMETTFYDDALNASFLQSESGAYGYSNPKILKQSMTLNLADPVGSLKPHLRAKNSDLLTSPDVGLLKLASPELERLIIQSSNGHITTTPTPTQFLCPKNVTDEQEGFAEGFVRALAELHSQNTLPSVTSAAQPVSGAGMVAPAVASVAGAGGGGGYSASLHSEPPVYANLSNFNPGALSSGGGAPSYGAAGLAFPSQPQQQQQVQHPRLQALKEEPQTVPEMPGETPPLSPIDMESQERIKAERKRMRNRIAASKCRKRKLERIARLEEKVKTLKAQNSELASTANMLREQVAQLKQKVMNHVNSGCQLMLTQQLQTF

| binding [1] | binding [2] | binding [3] | binding [5] | Binder | binding [4] |
| --- | --- | --- | --- | --- | --- |
| no binding | binds | binds weakly | – | NRF2-HA (nuclear factor-like 2, HA-tagged) (protein, UniProt Q60795 1-597) MMDLELPPPGLQSQQDMDLIDILWRQDIDLGVSREVFDFSQRQKDYELEKQKKLEKERQEQLQKEQEKAFFAQFQLDEETGEFLPIQPAQHIQTDTSGSASYSQVAHIPKQDALYFEDCMQLLAETFPFVDDHESLALDIPSHAESSVFTAPHQAQSLNSSLEAAMTDLSSIEQDMEQVWQELFSIPELQCLNTENKQLADTTAVPSPEATLTEMDSNYHFYSSISSLEKEVGNCGPHFLHGFEDSFSSILSTDDASQLTSLDSNPTLNTDFGDEFYSAFIAEPSDGGSMPSSAAISQSLSELLDGTIEGCDLSLCKAFNPKHAEGTMEFNDSDSGISLNTSPSRASPEHSVESSIYGDPPPGFSDSEMEELDSAPGSVKQNGPKAQPAHSPGDTVQPLSPAQGHSAPMRESQCENTTKKEVPVSPGHQKAPFTKDKHSSRLEAHLTRDELRAKALHIPFPVEKIINLPVDDFNEMMSKEQFNEAQLALIRDIRRRGKNKVAAQNCRKRKLENIVELEQDLGHLKDEREKLLREKGENDRNLHLLKRRLSTLYLEVFSMLRDEDGKPYSPSEYSLQQTRDGNVFLVPKSKKPDTKKN | – |
| – | – | – | binds | endogenous NRF2 (protein, UniProt Q60795 1-597) MMDLELPPPGLQSQQDMDLIDILWRQDIDLGVSREVFDFSQRQKDYELEKQKKLEKERQEQLQKEQEKAFFAQFQLDEETGEFLPIQPAQHIQTDTSGSASYSQVAHIPKQDALYFEDCMQLLAETFPFVDDHESLALDIPSHAESSVFTAPHQAQSLNSSLEAAMTDLSSIEQDMEQVWQELFSIPELQCLNTENKQLADTTAVPSPEATLTEMDSNYHFYSSISSLEKEVGNCGPHFLHGFEDSFSSILSTDDASQLTSLDSNPTLNTDFGDEFYSAFIAEPSDGGSMPSSAAISQSLSELLDGTIEGCDLSLCKAFNPKHAEGTMEFNDSDSGISLNTSPSRASPEHSVESSIYGDPPPGFSDSEMEELDSAPGSVKQNGPKAQPAHSPGDTVQPLSPAQGHSAPMRESQCENTTKKEVPVSPGHQKAPFTKDKHSSRLEAHLTRDELRAKALHIPFPVEKIINLPVDDFNEMMSKEQFNEAQLALIRDIRRRGKNKVAAQNCRKRKLENIVELEQDLGHLKDEREKLLREKGENDRNLHLLKRRLSTLYLEVFSMLRDEDGKPYSPSEYSLQQTRDGNVFLVPKSKKPDTKKN | no binding (condition: in the absence of HGHF treatment) |
| – | no binding | – | – | ΔNRF2 (truncated NRF2 mutant lacking amino acids 107–115), HA-tagged (protein, UniProt Q60795) MMDLELPPPGLQSQQDMDLIDILWRQDIDLGVSREVFDFSQRQKDYELEKQKKLEKERQEQLQKEQEKAFFAQFQLDEETGEFLPIQPAQHIQTDTSGSASYSQVAFEDCMQLLAETFPFVDDHESLALDIPSHAESSVFTAPHQAQSLNSSLEAAMTDLSSIEQDMEQVWQELFSIPELQCLNTENKQLADTTAVPSPEATLTEMDSNYHFYSSISSLEKEVGNCGPHFLHGFEDSFSSILSTDDASQLTSLDSNPTLNTDFGDEFYSAFIAEPSDGGSMPSSAAISQSLSELLDGTIEGCDLSLCKAFNPKHAEGTMEFNDSDSGISLNTSPSRASPEHSVESSIYGDPPPGFSDSEMEELDSAPGSVKQNGPKAQPAHSPGDTVQPLSPAQGHSAPMRESQCENTTKKEVPVSPGHQKAPFTKDKHSSRLEAHLTRDELRAKALHIPFPVEKIINLPVDDFNEMMSKEQFNEAQLALIRDIRRRGKNKVAAQNCRKRKLENIVELEQDLGHLKDEREKLLREKGENDRNLHLLKRRLSTLYLEVFSMLRDEDGKPYSPSEYSLQQTRDGNVFLVPKSKKPDTKKN | – |

Reference: publication PMC8904790
